Some of the results follow. At the low end of the ranking the order means little.

The experiment has as its target GST-SBP-SLBP (stem-loop binding protein) (UniProt Q14493). The experiment can be described thus: targeted RNA Bind-n-Seq.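 Also: DESeq read counts versus GST-SBP nonspecific binding control pulldown.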 The settings on record: RBNS binding buffer: 25 mM Tris pH 7.5, 150 mM KCl, 3 mM MgCl2, 0.1% Tween, 0.5 mg/mL BSA, 1 mM DTT; 27 nM protein, 750 pM RNA pool; temperature not stated; high values mean tight binding.
Take “GGUCACGUCUCAAUCAACUCAUCUUCAGGAGUUUGCUCCUGCUUUUUCAACAGCUCGCAGUCAAG”: the binding signal (log2 fold change) was 0.0533. “GGUCACGUCUCAAUCAACUCAACUUCAGGAGUUUUCUCCUGCAUUUUCAACAGCUCGCAGUCAAG”: the binding signal (log2 fold change) is -0.0175. In the case of “GGUCACGUCUCAAUCAACUCAAUAGAGGGGGGGAAAACCCCUUUACCCUCCAUUUCAACAGCUCGCAGUCAAG”, the binding signal (log2 fold change) came to 0.105. For the sequence “GGUCACGUCUCAAUCAACUCUUCUUCCAGGGAAACCCCUGGCAAUCUCAACAGCUCGCAGUCAAG”, the binding signal (log2 fold change) is -0.0782.

Turning to “GGUCACGUCUCAAUCAACUCUACUCCCAGGGAAAUCCCUGGUUAAUUCAACAGCUCGCAGUCAAG”, the binding signal (log2 fold change) was -0.245. With “GGUCACGUCUCAAUCAACUCCAAAGAGGGGGGGAAAACCCCUUUGCCCUCCAUUUCAACAGCUCGCAGUCAAG”, the binding signal (log2 fold change) is -0.198. Consider “GGUCACGUCUCAAUCAACUCUAUAGAGGGGGGGAAAACCCCUUUACCCUCAUCAUCAACAGCUCGCAGUCAAG”, for which the binding signal (log2 fold change) amounted to 0.306. To “GGUCACGUCUCAAUCAACUCAUUUCCAGGAGUUUGCUCCUGCUUACUCAACAGCUCGCAGUCAAG” belongs 0.129; to “GGUCACGUCUCAAUCAACUCAACUUCCAGGGAAACCCCUGGUAAUCUCAACAGCUCGCAGUCAAG”, 0.00358; to “GGUCACGUCUCAAUCAACUCACUAGAGGGGGGGAAAACCCCUUUACCCUCAUUAUCAACAGCUCGCAGUCAAG”, 0.408.

“GGUCACGUCUCAAUCAACUCUUCUUCCAGGGAAACCCCUGGUAUACUCAACAGCUCGCAGUCAAG”: the binding signal (log2 fold change) is 0.266. With “GGUCACGUCUCAAUCAACUCAUCUCCCAGGGAAAUCCCUGGUAAUCUCAACAGCUCGCAGUCAAG”, the binding signal (log2 fold change) was 0.0219.

In the case of “GGUCACGUCUCAAUCAACUCUUUCUCAGGAGUUUUCUCCUGUUUUUUCAACAGCUCGCAGUCAAG”, the binding signal (log2 fold change) is -0.0612. As for “GGUCACGUCUCAAUCAACUCAACGGAGGGGGGGAAAACCCCUUUACCCUCAAAAUCAACAGCUCGCAGUCAAG”, the figure is -0.0322. Turning to “GGUCACGUCUCAAUCAACUCUAUCGAGGGGGGGAAAACCCCUUUGCCCUCAUCUUCAACAGCUCGCAGUCAAG”, the binding signal (log2 fold change) was -0.262. To “GGUCACGUCUCAAUCAACUCAACUUCCAGGGAAAUCCCUGGCAAUUUCAACAGCUCGCAGUCAAG” belongs -0.11; to “GGUCACGUCUCAAUCAACUCAUCCCCAGGAGUUUACUCCUGUAGUCUCAACAGCUCGCAGUCAAG”, 0.138; to “GGUCACGUCUCAAUCAACUCCUACGAGGGGGGGAAAACCCCUUUACCCUCAAUCUCAACAGCUCGCAGUCAAG”, -0.529. Consider “GGUCACGUCUCAAUCAACUCUAUUUCCAGGGAAAGCCCUGGCUAACUCAACAGCUCGCAGUCAAG”, for which the binding signal (log2 fold change) was 0.196.

As to “GGUCACGUCUCAAUCAACUCUUCCCCCAGGGAAAACCCUGGUUAUGUCAACAGCUCGCAGUCAAG”, the binding signal (log2 fold change) was -0.0619.

Values taken from paper PMC5892938.
